Measured values published in the supplement of paper PMC10126150.
Sequences with one replicate were seen in a single cluster, so their values are uncertain.

System: ATP
Assay: switch fluorescence ratio, 500 uM ATP over buffer (Cy3 cluster intensity, sum of 5 cycles each) (fold (ratio)); higher = stronger signal-on switching upon ATP binding; sequences stand for … in TCGTCGGCAGCGTCAGATGTGTATAAGAGACAGTTTTTTTTTTTTTTTTTTTTTTTTT…TC
Conditions: aptamer strand: ATP DNA aptamer (quencher-CACCTGGGGGAGTATTGCGGAGGAAGG + anchor), 100 nM annealed; ATP concentration: 500 uM; one replicate
How it was run: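 The fluorescence ratio divides summed target-cycle Cy3 intensity by summed buffer-cycle Cy3 intensity for each cluster and is averaged per switch-domain sequence. Cy3-labelled switching-strand clusters on a modified Illumina MiSeq flow-cell were annealed to 100 nM quencher-labelled ATP aptamer, then imaged in selection buffer and again after 15 min with 500 uM ATP at 22 °C. Five such cycles were run, with NaOH stripping and re-annealing between them, and clusters outside 100-1000 RFU were excluded.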
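Note: ATP exposure 15 min at 22 °C before imaging.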

Sequence	switch fluorescence ratio
ACTAAGGGTA	1.05
GGGCTTGCCG	1.01
TTTCGGCCGG	1.06
CCGAATTAAC	2.46
ATTCGTTGAT	1.01
TGTAGGCCTA	1.01
CTGCGAGTCG	1.01
TCCAACGGAG	0.976
ACAAGTGAAC	1.05
TAACTAATAC	1.32
GGCATAAAAC	1.1
CCCCAGTATT	1.17
AACGAGGCTC	0.99
ACGAGGGCG	0.963
ATTTACGGAT	1
TCTTGGGCG	1.03
GAGCCGTGGC	0.96
ATAACGGCCC	1.06
GAAGTCAGGA	0.987
ATCTGGTACC	1.03
GACTATACCC	1.33
AGGCTGTGTA	0.999
TCTTACGCTG	0.981
ATACTAGGTA	1.03
CAGAATCATG	0.963
TTTGAATCAA	1

Sequence	switch fluorescence ratio
GCGATCGGGG	0.958
TCGGTTAG	1.01
CGTCACTACC	1.18
CCGTAGATGT	1.47
ACACAGTAAA	1.05
ACATCACAG	1.42
TCTATACTAA	1.04
TAAGATATAA	1
CGGGCTAACT	1.02
AGTGGGAGGT	0.959
GGAGCCACGT	1.01
CAATACGGGA	1.13
GGTATACTTC	1.28
GCATGGTCAT	0.994
AAGTCAATCA	0.988
ATTTTGTCCC	1.04
GAGCATCGCA	1.06
TGTAGCGGCG	1.01
AACGAAAGGT	1.9
GGATGGGGAC	1.04
TCAGGATAT	1.14
ATAGCATGGT	0.994
TTTTCGACAC	1.06
ATGATGTCGA	0.927
CATAGAGGTT	0.962
GGGCCAGCG	1.05

Sequence	switch fluorescence ratio
GCATTCTCTT	1.11
GCCCTACATC	0.969
CTCTTAAGGA	0.994
AGTTTGCAGG	0.981
CAAGCGGG	1.18
TAGAAAGGA	0.982
ACTTTGCACT	1.23
TTACTACTTC	1.06
TTTCGCCTGG	0.979
TTGTATCCTA	0.978
GTGGCCAACA	0.996
ATTGAGGTA	0.971
AGTGGGGGCT	0.939
CACGAATAAA	1.05
AACTCTGGT	0.949
AGCAGTGCTG	0.936
CGAGTAACAG	1.01
GACGTACGCA	2.2
GCCAAACGAT	1.02
GGGCGAGTGT	0.958
ACCCGTCAAT	3.86
CGAAGCATCA	2.82
GTAATTGACG	1.03
CAAATGTGAA	0.98
ACCGTCCGCC	2.5
TCTGCAACAT	1.62

Sequence	switch fluorescence ratio
ACCAGCTCAT	0.992
GGATTTGAA	0.965
CAGGTGCCTA	1.16
CAGCGTCTCG	1.01
TGAACTGTTG	1.01
GGAGGCGCCT	0.96
AGCAGCAGG	1.04
CGGAGTGTAG	1.03
CCAAGATACC	2.08
AGTATTCTGA	0.997
CTGGGCACCG	0.953
AAAATCCAGG	1.72
GTTTGGCCAG	1.04
AGCAGTGTTA	1.01
TTTTTGCAAG	1.06
GGCGGTACGA	1.02
AGTCTGCTT	1.02
TCACCTCCA	1.06
CAACATATCG	0.985
TACACAAGGG	1.06
AGAAAGGTAA	1.03
GGTTACGGGA	0.968
TTGTACTTCA	1.08
AAGTTATAGC	0.994
TGTGTTTACG	1.02
CACGTCCAAC	1.16

Sequence	switch fluorescence ratio
ATCACGGTTA	1.05
AGGAGCCTTA	1.06
TAGTAAGTAC	1.46
CGTTTGATT	0.99
CACATAGAGT	1.06
GTCGCCATAT	1.03
GCGGCCGAGT	1.05
CTTGCCGAAG	1.01
GTTTCTCAGT	1.06
CGGTTGGCGC	1
TAGGTCGACA	0.999
TGAAGCAGTT	1.11
GATGTCGCGG	0.997
TTATACTCCC	4.02
ATCGAATCAT	0.985
GCTACTTTTT	0.976
AGTGTCCCAC	0.969
CAGTACGAGG	0.978
AGATAATCAA	0.961
AAAAAACATG	1.02
ACCGGATCCG	1.01
GGCATAATAG	1.06
GTAGCAAGTG	1.52
CAACTCGACA	1.07
GTCCGTCCAA	1.22
CTAGAGAACC	0.982

Sequence	switch fluorescence ratio
TGGAACCGTT	0.995
TATCGCAGCT	1.21
ATTAGCAACT	1.04
GGCTCAGACA	1.01
CCACCCTAGA	1.08
GATTGAGAAC	0.965
TAGCTCGTGG	1.07
TTCAATAGGC	1.01
GGGAGTACCC	1.01
CGCGCGTTAT	1.05
AGATACCG	1.06
ATTTCGGAGG	1.02
GTGATGTTTT	0.988
CCAGTATGGT	0.992
GGGTGGTCCT	0.966
TTGGCGCGCG	0.979
CGAAGGTCTG	0.993
TAGGAGTAAA	1.04
TTCCTTTGAT	0.989
GTTGTTGTCA	1
GGCTAAATT	1.01
CAGCTGGGCT	0.978
GCGTTACCAG	1.01
